The supplement of paper PMC9446081
In all, about 39,000 compounds went through this assay and about 220 (0.56%) showed activity. The list shows a part of the results.
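Note: static incubation at 37 °C against the wild-type strain, values averaged over two biological replicates.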

The molecules below were run on Escherichia coli K-12 BW25113 (assay: relative growth (OD600 normalised to plate interquartile mean) (fraction); higher = less growth inhibition, active = 0.2 or less). Conditions: 50 µM; LB; incubation time: overnight (16-24 h).
`COc1ccc(C#Cc2ccc([C@H]3[C@H]4CN(S(=O)(=O)c5cn(C)cn5)CCCCN4[C@H]3CO)cc2)cc1` was tested, and the relative growth was inactive: 1.02.
For `C[C@H](CO)N1C[C@H](C)[C@@H](CN(C)S(=O)(=O)c2ccc(Cl)cc2)Oc2c(NC(=O)c3ccc(-c4nccs4)cc3)cccc2C1=O`, the relative growth was inactive: 0.999.
With `COCC#Cc1ccc2c(c1)O[C@H](CN(C)C(=O)C1CCOCC1)[C@@H](C)CN([C@@H](C)CO)S2(=O)=O` the relative growth was inactive: 1.01.
In the case of `C[C@@H]1CN([C@H](C)CO)C(=O)c2cc(NC(=O)Nc3ccc(F)cc3)ccc2O[C@@H](C)CCCCO[C@H]1CN(C)S(=O)(=O)c1ccc(Cl)cc1`, the relative growth is reported as inactive: 1.01.
With `C[C@H](CO)N1C[C@H](C)[C@H](CN(C)C(=O)c2cnccn2)Oc2cc(C#CCC3CCCC3)ccc2S1(=O)=O` the relative growth was inactive: 1.
For `C[C@H]1CN([C@@H](C)CO)C(=O)Cc2cc(NC(=O)CCCN(C)C)ccc2O[C@@H]1CN(C)C(=O)NC1CCCCC1`, the relative growth was inactive: 0.993.
`C[C@@H]1CN([C@H](C)CO)C(=O)c2cc(NC(=O)Nc3cccc4ccccc34)ccc2O[C@@H]1CN(C)C(=O)Nc1ccccc1` was tested, and the relative growth was inactive: 1.04.
With `Cc1cn2c(=O)c(C(=O)O)cnc2s1` the relative growth was inactive: 0.979.
For `OC[C@H]1O[C@H](O[C@H]2O[C@H](CO)[C@@H](O)[C@H](O)[C@H]2O)[C@H](O)[C@@H](O)[C@@H]1O`, the relative growth was inactive: 0.986.
With `OC[C@@H](O)[C@@H](O[C@@H]1O[C@H](CO)[C@@H](O)[C@H](O)[C@H]1O)[C@H](O)[C@@H](O)CO` the relative growth was inactive: 1.01.
With `CN[C@@H]1[C@@H](O[C@H]2O[C@H](CO)[C@@H](N)[C@H](O)[C@H]2O)O[C@H]2C[C@@H](N)[C@H](O[C@H]3[C@H](O)[C@@H](O)[C@H](N)C[C@@H]3N)O[C@@H]2[C@@H]1O` the relative growth was inactive: 0.978.
For `C[C@H]1CN([C@@H](C)CO)C(=O)c2cccc(NS(C)(=O)=O)c2O[C@H]1CN(C)C(=O)Nc1ccccc1`, the relative growth was inactive: 0.982.
With `C[C@@H]1CCCCO[C@H](CN(C)S(=O)(=O)c2ccccc2)[C@@H](C)CN([C@H](C)CO)C(=O)c2cc(NC(=O)Nc3ccccc3)ccc2O1` the relative growth was inactive: 1.03.
With `CC(=O)N1CCN(c2ccnc3c2c(=O)n(CC(=O)NC(C)(C)C)c(=O)n3C)CC1` the relative growth was inactive: 0.979.
`CC(=O)n1nc(-c2cccnc2)nc1N` was tested, and the relative growth was inactive: 1.02.
With `C[C@H]1CN([C@@H](C)CO)C(=O)c2c(c3ccccc3n2C)-c2ccccc2CO[C@H]1CN(C)Cc1cccc(F)c1` the relative growth was inactive: 0.992.
For `Cc1noc(C)c1NC(=O)N(C)C[C@@H]1OCCCC[C@@H](C)Oc2ccc(NC(=O)Cc3ccccc3)cc2C(=O)N([C@@H](C)CO)C[C@H]1C`, the relative growth was inactive: 0.958.
In the case of `C[C@H]1CN([C@@H](C)CO)C(=O)c2cccc(NC(=O)c3ccc(-c4nccs4)cc3)c2O[C@H]1CN(C)Cc1ccc(C(=O)O)cc1`, the relative growth is reported as inactive: 1.
In the case of `Cc1ccc(S(=O)(=O)Nc2ccc3c(c2)C(=O)N([C@H](C)CO)C[C@H](C)[C@H](CN(C)S(=O)(=O)c2ccccc2)O3)cc1`, the relative growth is reported as inactive: 1.
`C[C@H](CO)N1C[C@H](C)[C@H](CN(C)S(=O)(=O)c2ccc(Cl)cc2)OCCCC[C@H](C)Oc2ccc(NS(=O)(=O)c3ccc(F)cc3)cc2C1=O` was tested, and the relative growth was inactive: 1.02.
In the case of `C[C@@H]1CN([C@H](C)CO)S(=O)(=O)c2ccc(-c3cncnc3)cc2O[C@H]1CN(C)C(=O)Cc1cccnc1`, the relative growth is reported as inactive: 0.98.
In the case of `CC(=O)O[C@@H]1C[C@@H]2CC[C@@]1(C)C2(C)C`, the relative growth is reported as inactive: 0.977.
With `CN(C)CCCNC(=O)C[C@H]1CC[C@H]2[C@@H](COC[C@H](O)CN2C(=O)Nc2cc(Cl)cc(Cl)c2)O1` the relative growth was inactive: 0.995.
`COc1ccc(NC(=O)N(C)C[C@@H]2Oc3ccc(NS(=O)(=O)c4cn(C)cn4)cc3CC(=O)N([C@@H](C)CO)C[C@@H]2C)cc1` was tested, and the relative growth was inactive: 1.01.
In the case of `COc1ccc(CN(C)C[C@H]2OCCCC[C@H](C)Oc3ccc(NS(=O)(=O)c4ccc(F)cc4)cc3C(=O)N([C@H](C)CO)C[C@@H]2C)cc1`, the relative growth is reported as inactive: 1.01.
With `Cc1ccc(S(=O)(=O)N2C[C@H](O)COC[C@@H]3O[C@H](CC(=O)NCc4ccc(Cl)c(Cl)c4)CC[C@H]32)cc1` the relative growth was inactive: 0.966.
With `C[C@@H]1CN([C@H](C)CO)C(=O)c2cc(NC(=O)NC3CCCCC3)ccc2O[C@@H]1CN(C)Cc1ccc(Oc2ccccc2)cc1` the relative growth was inactive: 1.03.
With `CN(C)C(=O)C[C@@H]1C=C[C@@H](NC(=O)C2CCOCC2)[C@@H](CO)O1` the relative growth was inactive: 1.02.
With `C[C@@H]1CN([C@H](C)CO)C(=O)CCCn2cc(nn2)CO[C@H]1CN(C)C(=O)Nc1cccc(Oc2ccccn2)c1` the relative growth was inactive: 0.992.
`C[C@@H]1CN([C@@H](C)CO)C(=O)c2cc(N(C)C)ccc2O[C@@H](C)CCCCO[C@@H]1CN(C)S(C)(=O)=O` was tested, and the relative growth was inactive: 1.01.
For `C[C@H](CO)N1C[C@H](C)[C@H](CN(C)C(=O)Nc2ccc(C(F)(F)F)cc2)Oc2ccc(NS(=O)(=O)c3ccc(Cl)cc3)cc2C1=O`, the relative growth was inactive: 1.01.
With `COc1ccc(NC(=O)Nc2ccc3c(c2)C(=O)N([C@@H](C)CO)C[C@@H](C)[C@@H](CN(C)Cc2ccc(C(F)(F)F)cc2)OCCCC[C@@H](C)O3)cc1` the relative growth was inactive: 0.971.
In the case of `COc1ccc(S(=O)(=O)N2CCCN(S(=O)(=O)c3ccc(OC)c(OC)c3)CC2)cc1OC`, the relative growth is reported as inactive: 0.973.
With `COc1ccc(S(=O)(=O)Nc2ccc3c(c2)C(=O)N([C@H](C)CO)C[C@@H](C)[C@H](CN(C)C(=O)Nc2ccccc2)OCCCC[C@H](C)O3)cc1` the relative growth was inactive: 1.03.
`C[C@H]1CN([C@@H](C)CO)C(=O)c2cc(NS(=O)(=O)c3ccccc3)ccc2O[C@@H]1CN(C)CC1CC1` was tested, and the relative growth was inactive: 0.98.
In the case of `C[C@@H]1CCCCO[C@H](CN(C)C(=O)Cc2ccccc2)[C@H](C)CN([C@@H](C)CO)C(=O)c2cc(NC(=O)Nc3ccc(C(F)(F)F)cc3)ccc2O1`, the relative growth is reported as inactive: 1.03.
`C[C@@H]1CN([C@@H](C)CO)S(=O)(=O)c2ccc(-c3ccncc3)cc2O[C@H]1CN(C)C(=O)c1cccc(F)c1` was tested, and the relative growth was inactive: 1.03.
